# Data: the supplement of paper PMC11417369
# This is one part of the list.
# System: PfHDP1 homeodomain (GST-tagged)
# Assay: gcPBM binding intensity (ln(normalized median fluorescence intensity)); higher = stronger DNA binding
# How it was run: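 Binding of GST-tagged P. falciparum DNA-binding domains, expressed in E. coli and used at about 25 μg on average, was carried out for 1 h in 1× PBS containing 1% milk, 0.2 mg/ml BSA, 0.5% salmon testes DNA and 0.03% Triton X-100. The target was an Agilent 4 × 180k array of primer-extended double-stranded 36-bp intergenic genomic probes plus negative controls, read with Alexa488 anti-GST antibody at 488 nm. Binding intensity is the highest Masliner-normalised natural-log median intensity across replicate spots of either probe orientation.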
row,Sequence,gcPBM binding intensity (ln)
1,TTTTTATTTTTTTATTTCTTATCAAATAAAATATAT [XGTACX_negctrl_site537],6.22
2,AATATTTTGTTATTTATTTAATCTAATATTACTATC [CACACA_negctrl_site4],6.03
3,ATATATATATAAATATGTACATATATACATATATAC [XGTACX_site2374],8.44
4,TAGGAAAATTACAAAAGTACTTGGCACATAATAATG [XGTACX_site6005],6.64
5,ATTATAGAATATTGAAGTACAAAATTTAAAATAAGT [XGTACX_site1468],6.45
6,AAAAAAAAAAAATACACACAAACACAAATTAAATAA [CACACA_site3809],6.65
7,TAATTTATCCTATAATGTACTTATAAAATATATCAT [XGTACX_site1460],6.3
8,ATTCAGAGTATATAAAAATTAATATATACATAATAT [CACACA_negctrl_site1782],6.46
9,AGTCCATTTTATTATTGTACATATTAATTTATATCA [XGTACX_site672],7.11
10,ATGTACATAAACCGCACACATATAAAAAAATAAATA [CACACA_site5571],6.77
11,TAGATATTTTTGAAAAGTACAAATTTTTAAAAATTA [XGTACX_site4420],6.05
12,TTATATAATGACAAAAAAAAAAAAAAAAAAAAAAAA [CACACA_negctrl_site1467],6.21
13,GTATGATTACAAGAAAGTAGTCCACTTTAACAACAA [CACACA_negctrl_site1304],6.49
14,TATTTTGTCATAGAACGTACTTATAAATATTTTTTT [XGTACX_site8424],6.48
15,ATAGAAGCTGTTGACGAAGAAAAAAAAAAAAAAAAA [CACACA_negctrl_site110],6.54
16,ATCAAATTATAATCATGTACAAATAAAAAAAAAAAA [XGTACX_site313],6.3
17,AGAAAAAAAAAAAAAAAACACACGGTACATCCAAAG [CACACA_site124],6.15
18,AAATATCTACAAATATGTACATATTTTTTTTGGCTT [XGTACX_site6301],6.49
19,TATATATATATATATGCACACATTTATACAATTTTA [CACACA_site2986],10.2
20,ATCATATCCACCAAATGAATAATATAAAATAATATA [XGTACX_negctrl_site193],6.49
21,AAATAACATAATAAGGGTACATTAATTTCGATAATG [XGTACX_site835],6.19
22,TATACTTCTTATTAAATGAGTAGTATATATTATATA [TGCATGCA_negctrl_site299],6.04

row,Sequence,gcPBM binding intensity (ln)
1,CTATTTCATAAACACACACACACAAACAAACATATA [CACACA_site8234],7.16
2,CTAAAATACGAACACACACACACATATAAATAAATA [CACACA_site7872],6.83
3,AAAGATTGCGATGGTTGTACTTTTCTATATTTTTTT [XGTACX_site3492],6.54
4,TTTTTTTCTTTTTGAGGTACGCATTATTTTATTTGT [XGTACX_site6996],5.99
5,ATAATTTGATGGTTAACACACATATAGATTATAGAT [CACACA_site7200],6.41
6,ACAAAGTTTATAGAACGTACATACTTACACATATTT [XGTACX_site556],6.52
7,AAACAATTACACATATGTATGTATATATATATATAT [TGCATGCA_negctrl_site536],9.16
8,AAAAAAATGAAACACACACACACATATATATATATA [CACACA_site1043],9.32
9,TGTTATATTTCAAATTGTACTAATCTAATTAATAAA [XGTACX_site604],6.07
10,TTATTATATATATCTCGTACGTGTATACGCCTACCA [XGTACX_site8375],6.95
11,AAGTAGTGTTAATACTGTACTTATATTTTTTATTAT [XGTACX_site8264],5.96
12,TTGATATTTTTTTTATGTACACATGTTCATATTTTT [XGTACX_site8095],6.65
13,ATTTAAAAAAGAAAGGTGCATTTCAATAATGTAAAA [GTGCAC_site9585],8.13
14,TCATCTTTTATATGTTGTACGTATTTTCATTTATAT [XGTACX_site4855],6.83
15,TCACATATTATCTTTACACACTATAAATAAGTTTTA [CACACA_site7335],6.71
16,AAATTAAAAAAGAATATACACACCAAAACTGTTTGT [CACACA_site958],6.26
17,TAAAAAAAGGAAAACATACAATTCTATTTTTCAATA [CACACA_negctrl_site474],6.05
18,TAATTTTAAATATCTTCACACATTATATTTTTATAT [CACACA_site5411],6.29
19,ACCATACATACATACACACACACACGCATATTTATA [CACACA_site7386],7.61
20,TATATAAATAGATACACACATACATACATACATACA [CACACA_site260],7.37
21,TATAATAATACTTATTGTACGATTAGCTTAATTCGT [XGTACX_site15],6.2
